Test results as given in article PMC3431379.
No constants are given. Whether binding was seen depends on the method and setting. In cells and extracts the contact can be indirect. Some binding calls cover weakened binding; strength is not graded here.

Chains of the proteins cited; added tags and fusions are not shown. Lines headed by an entry give the natural chain unless they say otherwise; changes in a name come on top. A line that says so, or that is headed by a name, gives the form on record, which may keep a tag or linker. Residues count along the entry.
UniProt O88545: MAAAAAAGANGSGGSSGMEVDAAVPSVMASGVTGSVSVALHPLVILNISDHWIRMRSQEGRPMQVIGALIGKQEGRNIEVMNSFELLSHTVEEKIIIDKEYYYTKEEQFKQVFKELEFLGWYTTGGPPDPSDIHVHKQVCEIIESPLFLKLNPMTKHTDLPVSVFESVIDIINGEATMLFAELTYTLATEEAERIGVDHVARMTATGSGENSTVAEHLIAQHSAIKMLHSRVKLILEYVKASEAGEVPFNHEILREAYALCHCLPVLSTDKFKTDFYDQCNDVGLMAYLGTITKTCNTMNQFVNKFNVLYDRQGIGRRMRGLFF
HA-tagged mouse Csn6 truncation mutant HA-S6MPN: residues 38-171 of O88545
UniProt Q13098: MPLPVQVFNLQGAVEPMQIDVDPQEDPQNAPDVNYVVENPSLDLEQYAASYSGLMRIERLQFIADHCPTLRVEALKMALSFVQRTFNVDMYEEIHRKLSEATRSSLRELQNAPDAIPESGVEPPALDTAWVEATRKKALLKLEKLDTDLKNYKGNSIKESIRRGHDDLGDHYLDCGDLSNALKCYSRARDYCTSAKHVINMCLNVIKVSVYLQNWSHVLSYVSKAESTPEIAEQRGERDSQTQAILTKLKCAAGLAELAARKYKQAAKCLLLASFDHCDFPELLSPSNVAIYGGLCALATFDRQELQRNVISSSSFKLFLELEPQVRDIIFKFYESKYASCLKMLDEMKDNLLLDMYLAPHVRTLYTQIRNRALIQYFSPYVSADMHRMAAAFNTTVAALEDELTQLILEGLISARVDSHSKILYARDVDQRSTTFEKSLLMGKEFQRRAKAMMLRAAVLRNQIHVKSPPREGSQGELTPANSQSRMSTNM
UniProt P61201: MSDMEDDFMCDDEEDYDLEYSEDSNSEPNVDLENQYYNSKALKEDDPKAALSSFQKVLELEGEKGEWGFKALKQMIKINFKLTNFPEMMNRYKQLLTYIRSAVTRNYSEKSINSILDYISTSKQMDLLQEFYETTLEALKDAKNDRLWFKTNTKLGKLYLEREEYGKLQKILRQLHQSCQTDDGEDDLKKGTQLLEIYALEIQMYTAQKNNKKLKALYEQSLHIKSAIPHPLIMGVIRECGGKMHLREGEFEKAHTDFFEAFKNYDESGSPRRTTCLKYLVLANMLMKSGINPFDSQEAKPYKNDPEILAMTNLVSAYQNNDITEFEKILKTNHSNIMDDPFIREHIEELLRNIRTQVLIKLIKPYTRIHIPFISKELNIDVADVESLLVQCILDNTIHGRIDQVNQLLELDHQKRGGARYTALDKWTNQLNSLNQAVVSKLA
UniProt Q9UNS2: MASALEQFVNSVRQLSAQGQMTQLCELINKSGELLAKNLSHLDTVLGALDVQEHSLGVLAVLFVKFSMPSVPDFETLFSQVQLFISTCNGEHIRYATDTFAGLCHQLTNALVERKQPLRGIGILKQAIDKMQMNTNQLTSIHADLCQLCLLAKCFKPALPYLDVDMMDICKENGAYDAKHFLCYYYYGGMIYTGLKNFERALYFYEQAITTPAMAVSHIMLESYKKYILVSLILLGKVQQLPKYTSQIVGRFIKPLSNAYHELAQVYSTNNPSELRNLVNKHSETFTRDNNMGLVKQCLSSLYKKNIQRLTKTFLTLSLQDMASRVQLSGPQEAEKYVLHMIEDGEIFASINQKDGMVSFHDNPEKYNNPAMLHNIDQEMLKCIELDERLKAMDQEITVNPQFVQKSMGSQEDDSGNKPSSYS
UniProt Q92905: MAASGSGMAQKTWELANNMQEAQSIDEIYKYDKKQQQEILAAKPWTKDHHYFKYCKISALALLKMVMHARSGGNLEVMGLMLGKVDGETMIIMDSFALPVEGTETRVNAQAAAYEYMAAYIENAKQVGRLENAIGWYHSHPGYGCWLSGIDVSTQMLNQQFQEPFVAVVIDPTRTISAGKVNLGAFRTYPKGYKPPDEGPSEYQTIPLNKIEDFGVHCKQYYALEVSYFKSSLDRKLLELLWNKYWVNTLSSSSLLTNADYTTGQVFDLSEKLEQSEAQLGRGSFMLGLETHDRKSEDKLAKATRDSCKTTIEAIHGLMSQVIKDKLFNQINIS
UniProt Q99627: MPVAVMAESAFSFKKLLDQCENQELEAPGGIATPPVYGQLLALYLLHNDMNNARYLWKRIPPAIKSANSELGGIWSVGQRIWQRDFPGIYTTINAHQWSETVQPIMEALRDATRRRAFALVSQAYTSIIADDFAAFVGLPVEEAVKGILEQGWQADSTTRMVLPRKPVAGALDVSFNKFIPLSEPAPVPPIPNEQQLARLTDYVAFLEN

Assays:
[1] = biological target: HA-tagged full length mouse Csn6 (HA-S6FL) (mouse) (UniProt O88545); test: co-IP; HA-tagged Csn6 constructs co-expressed with Flag-S6FL; HA (Bethyl S190-107) immunoprecipitation from cell lysate, immunoblot for Flag-S6FL and endogenous CSN subunits
[2] = biological target: HA-tagged mouse Csn6 truncation mutant HA-S6MPN (mouse) (UniProt O88545); test: as above
[3] = biological target: HA-tagged full length mouse Csn6 (HA-S6FL) (mouse) (UniProt O88545); test: co-IP; HA-tagged mouse Csn6 constructs expressed in HeLa cells; HA immunoprecipitation from lysate, immunoblot of endogenous proteins; addition of 330 mM NaCl interfered with CSN-cullin interactions
[4] = biological target: HA-tagged mouse Csn6 truncation mutant HA-S6MPN (mouse) (UniProt O88545); test: as above

| binding [1] | binding [2] | binding [3] | binding [4] | Substance |
| --- | --- | --- | --- | --- |
| no binding | binds | – | – | Flag-tagged full length Csn6 (Flag-S6FL) (from UniProt O88545 1-324) |
| – | – | binds | no binding | endogenous Csn1 (from UniProt Q13098 1-491) |
| – | – | binds | no binding | endogenous Csn2 (from UniProt P61201 1-443) |
| – | – | binds | no binding | endogenous Csn3 (from UniProt Q9UNS2 1-423) |
| – | – | binds | no binding | endogenous Csn5 (from UniProt Q92905 1-334) |
| – | – | binds | no binding | endogenous Csn8 (from UniProt Q99627 1-209) |
